The whole screen tested about 360,000 compounds, of which about 6,000 (1.7%) were called active. The shares of active, inactive and inconclusive entries below differ from those in the screen. Calls come from the whole dose curve; as a rule, active = well fitted cell-killing curve with a large enough effect; inconclusive = small, poorly fitted or top-dose-only effect, or effect the other way; inactive = flat fitted curve, though single readings scatter. No potency is given beside an inconclusive call; the fits are too rough.
test: qHTS for induction of synthetic lethality in tumor cells producing 2HG: qHTS for the HT-1080-NT fibrosarcoma cell line; conditions: HT-1080-NT fibrosarcoma viability, CellTiter-Glo ATP luminescence, 48 h; activity, negative = less viability: at 46.1 µM (top of the series) unless noted;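 note: NT is the 2HG producing partner of a matched IDH1 knockdown line; nearly all actives have a fitted effect of over 55% in size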;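 for activity, negative = less viability: 0% = DMSO-treated cells and -100% = media-only wells without cells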
Summary of the method: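 Read-out is CellTiter-Glo luminescence after 10 minutes at room temperature, following 48 hours' compound treatment of HT-1080-NT cells (750 cells/well, RPMI, 5% FBS, 37 degrees C).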
Potency is the fitted concentration of half-maximal effect; tags give direction and shape of the fitted curve.

| Compound | activity, negative = less viability | Potency |
| --- | --- | --- |
| CC(=O)C1=C(O)C(=O)N(Cc2ccccc2)C1c1ccco1 (configuration not stated) | inactive: 9.1% | – |
| Cc1ccc(SC(CC(=O)c2ccc(C(C)(C)C)cc2)C(=O)O)cc1 (configuration not stated) | – | inconclusive [cytotoxic, single point] |
| CC(=O)Oc1ccc2ccccc2c1C(NC(=O)Cc1ccccc1)c1ccccc1Cl (configuration not stated) | – | inconclusive [cytotoxic, single point] |
| CC1(c2nnnn2-c2ccc3c(c2)OCCO3)CCC(=O)N1C1CCN(Cc2ccccc2)CC1 (configuration not stated) | inactive: 11.8% | – |
| Cc1cc(C)cc(N(CC(=O)Nc2ccccc2-c2ccccc2)S(=O)(=O)c2ccccc2)c1 | inactive: 11.5% | – |
| CC(C)C(=O)Nc1ccc(N2CCCC2)c(Cl)c1 | inactive: -3.88% | – |
| Cc1ccc(NC(=O)c2nc[nH]c2C(=O)N[C@@H](C)c2ccccc2)cc1 | inactive: -26.5% | – |
| CCCC(=O)N1CCCC(C(=O)c2cccc(OC(C)C)c2)C1 (configuration not stated) | inactive: 6.47% | – |
| Cc1nn(-c2ccccc2)c2sc(C(=O)NCCN3CCOCC3)cc12 | – | inconclusive [cytotoxic, partial curve] |
| CCOC(=O)C1=C(CC)Nc2ccccc2N=C1NC(=O)c1ccc(S(=O)(=O)N(C)C)cc1 | inactive: 1.32% | – |
| CS(=O)(=O)c1ccc2nc(NC(=O)c3cccs3)sc2c1 | – | inconclusive [cytotoxic, single point] |
| CC(=O)c1c(C(C)=O)c(C)n(Cc2ccccc2)c1C | inactive: 3.93% | – |
| Nc1nn(S(=O)(=O)c2cccc3nsnc23)cc1-c1ccc(Br)cc1 | – | inconclusive [cytotoxic, partial curve] |
| CC(=O)Nc1cc(-c2cccnc2)cn2c(-c3ccc(F)cc3)cnc12 | inactive: 1.41% | – |
| O=C(/C=C/c1cc([N+](=O)[O-])ccc1OC(F)F)Nc1ccc(OC(F)F)cc1 | – | inconclusive [cytotoxic, single point] |
| C=CCn1c(=O)c2c(nc3n2CC(C)CN3CCc2ccccc2)n(C)c1=O (configuration not stated) | inactive: 6.23% | – |
| CC1CCN(C(C(=O)NC2CCCCC2)c2cc3c(cc2[N+](=O)[O-])OCO3)CC1 (configuration not stated) | inactive: 4.46% | – |
| CCCCC(=O)NC(c1ccc([N+](=O)[O-])cc1)c1c(O)ccc2ccccc12 (configuration not stated) | – | active: 16.4 µM |
| N#C/C(=C\c1ccccc1Br)C(=O)NC1CC1 | inactive: -3.11% | – |
| COC(=O)c1cc(Br)c(=O)n(CCc2ccccc2)c1 | inactive: 10.1% | – |
| Cc1ccc(C(=O)CC(=O)c2ccc(C)cc2O)cc1 | inactive: -19.7% | – |
| NC(c1ccccc1)c1csc(NC(=O)NCC2CCCCC2)n1 (configuration not stated) | – | inconclusive [cytotoxic, single point] |
| O=C1[C@H](Cc2ccccc2)NCCCC[C@@H](c2ccc(Cl)cc2)N1Cc1ccccc1 | – | inconclusive [cytotoxic, single point] |
| O=C(NCc1cccc(C(F)(F)F)c1)c1cccc2c1C(=O)c1ccc(N3CCC(Cc4ccccc4)CC3)cc1S2(=O)=O | – | inconclusive [rising, single point] |

| Compound | activity, negative = less viability | Potency |
| --- | --- | --- |
| Cc1cnccc1CN(C)Cc1nc(Cc2ccccc2Cl)no1 | – | inconclusive [cytotoxic, single point] |
| Cc1cc(Cl)cc(C)c1OCCCCn1ccnc1 | inactive: -27.2% | – |
| CC(C)C[C@@H](CO)N(Cc1ccccc1)S(=O)(=O)N(Cc1ccccc1)[C@@H](CO)CC(C)C | – | inconclusive [cytotoxic, single point] |
| Nc1cccc(C(=O)OCC(=O)c2ccccc2)c1 | – | inconclusive [rising, partial curve] |
| CCOC(=O)c1c(CSc2ccc(C)cc2)n(C)c2cc(Br)c(O)c(CN(C)C)c12 | – | inconclusive [cytotoxic, single point] |
| COc1cc(NC(=O)c2ccc(C)cc2)c(OC)cc1NC(=O)CN1CCCCC1 | – | inconclusive [cytotoxic, partial curve] |
| C=C1CCC2C(C)(C)[C@H](O)CC[C@@]2(C)[C@@H]1COc1cc(=O)oc2ccccc12 (some centres not stated) | – | inconclusive [cytotoxic, single point] |
| COc1ccccc1N1CCN(CC(=O)Nc2cc(C)nn2-c2nc(C)cc(C)n2)CC1 | – | inconclusive [cytotoxic, partial curve] |
| NCc1csc(Nc2ccc(C(=O)c3ccccc3)cc2)n1 | – | inconclusive [cytotoxic, partial curve] |
| CCn1ncc(CN2CCCC(C(=O)Nc3cccc(-c4cc5ccccc5[nH]4)c3)C2)c1C (configuration not stated) | – | inconclusive [cytotoxic, single point] |
| O=C(Nc1nc(-c2cccs2)c(C(=O)C(F)(F)F)s1)c1ccccc1 | – | inconclusive [cytotoxic, single point] |
| Cc1cc(=O)oc2cc(OCC(=O)NCCc3nc4ccccc4[nH]3)ccc12 | inactive: -3.77% | – |
| Cc1ccc(C(C)C)c(OCC(=O)Nc2ccc3c(c2)nc(CCN2CCCCC2)n3C)c1 | – | active: 20.6 µM |
| CCCCc1c(-c2ccc(OC)c(OC)c2)ncn1CCc1ccccc1OC | – | active: 14.6 µM |
| CC1(C)N=C(N)N=C(N)N1c1cccc(CC(=O)Nc2ccccc2)c1 | – | active: 9.2 µM |
| Nc1c(O)ccc2c1C(=O)c1ccccc1C2=O | – | inconclusive [cytotoxic, single point] |
| COc1ccc(Cl)cc1NC(=O)COC(=O)c1cc(C)oc1C | inactive: -2.24% | – |
| Cc1cccc(NC(=O)CN2CCN(C(=O)CNC(=O)c3ccc(-c4ccccc4)cc3)CC2)c1C | – | inconclusive [cytotoxic, partial curve] |
| Cc1cc(C(=O)N/N=C/c2cc(Cl)cc([N+](=O)[O-])c2O)c2ccccc2n1 | – | inconclusive [cytotoxic, single point] |
| Cc1ccccc1C(=O)NNC(=S)NC(=O)c1ccccc1 | – | inconclusive [cytotoxic, single point] |
| CN(C(=O)c1ccccn1)c1nnc(-c2ccccn2)s1 | – | inconclusive [rising, partial curve] |
| CCOC(=O)c1ccc(Nc2nc(=O)c3cccnc3s2)cc1 | – | inconclusive [cytotoxic, full curve] |
| Cc1ccc(NC(=O)Cc2nnc(SCC(=O)c3ccc(Br)cc3)n2C)cc1 | – | inconclusive [cytotoxic, single point] |

Source: PubChem BioAssay AID686970 (National Center for Advancing Translational Sciences (NCATS), 2013)
